Data as given in the RNAGym collection of RNA variant scans (doi:10.7554/elife.90254).
The source gives no read counts; variants with many changes may rest on few reads.

B1: LINE1-mini (parent)
chain: GGCAGAGCUCAACACAGCGUGGCAAAGUGGCUGUGGCUAGACUGCC

Variants of: B1
Assay: self-cleavage, relative activity (ratio to wild type); higher = more cleavage; in vitro, sequencing; the parent is a self-cleaving ribozyme

Variant	self-cleavage
GGCAGAGCUCAACACAGCGUGAAAAAGUGGCUGAGGCUAUACUGGC [G22A C23A U34A G40U C45G]	0.06
GGCAGAGCUCAACACAGCGUGACAAAGUUGCUGUGGCCUGACUGCC [G22A G29U U38C A39U]	0.67
GGCAGAGCUCAACACAGCGUUGCAAAGUGGCUGUGGCUAGACCGCA [G21U U43C C46A]	0.05
GGCAGAGCUCAACACAGCGUGCCAAUGUGGAUGUGGCUAGACUGCC [G22C A26U C31A]	0.1
GGCAGAGCUCAACACAGCGUGCCAAAGUGCCUGUGGCUAGACUGCA [G22C G30C C46A]	0.42
GGCAGAGCUCAACACAGCGUGCCAAAGUGGCUGAGGCUACACUGCC [G22C U34A G40C]	0.14
GGCAGAGCUCAACACAGCGUGCCAAUGUUGCUGUGCUUAGACUGCC [G22C A26U G29U G36C C37U]	0.01
GGCAGAGCUCAACACAGCGUUGCAAAGUGGCUGUGGCUAAAAUGCC [G21U G40A C42A]	0.15
GGCAGAGCUCAACACAGCGUGACAAUAUGGCUGUGGCUAGACUGCC [G22A A26U G27A]	0.67
GGCAGAGCUCAACACAGCGUGACAAAGUGGAUGUAGCUAGACUGCC [G22A C31A G35A]	0.02
GGCAGAGCUCAACACAGCGUGACAAAGUGGAUGUUGCUAGACUGCC [G22A C31A G35U]	0.01
GGCAGAGCUCAACACAGCGUGCCAAAGUGGCUGUGGCUAGGCUACC [G22C A41G G44A]	0.03
GGCAGAGCUCAACACAGCGUUGCAAAGUGGCUGUGGCUAGACUCAC [G21U G44C C45A]	0.02
GGCAGAGCUCAACACAGCGUGACAAAGUGGCUGUGGCUUGACUUCC [G22A A39U G44U]	0.17
GGCAGAGCUCAACACAGCGUUGCAAAGUGGCUGUGACUAGAUUGCC [G21U G36A C42U]	0.06
GGCAGAGCUCAACACAGCGUGCCAAAGUGGCCGUGGCUAGACUGAC [G22C U32C C45A]	0.12
GGCAGAGCUCAACACAGCGUGCCAAAGUGGCUGGAGCUAGACUGCC [G22C U34G G35A]	0.02
GGCAGAGCUCAACACAGCGUGCCAAAGAGGAUGUGGCUAGACUGUC [G22C U28A C31A C45U]	0.1
GGCAGAGCUCAACACAGCGUGACGAAGUUGCUGUGGCUAGACUGCC [G22A A24G G29U]	0.91

Variant	self-cleavage
GGCAGAGCUCAACACAGCGUGACAAAGUGGCUGUGACUAGACUACC [G22A G36A G44A]	0.45
GGCAGAGCUCAACACAGCGUUGCAAAGUGGCUGUUGCUUGACUGCC [G21U G35U A39U]	0.14
GGCAGAGCUCAACACAGCGUGAGAAAGUGGCUGUGGGUAGACUGCC [G22A C23G C37G]	0.01
GGCAGAGCUCAACACAGCGUGACAAAGUGGUUGUGGCUAGACUACG [G22A C31U G44A C46G]	0.03
GGCAGAGCUCAACACAGCGUGACAAAGUGGCUGUUGCUAGACCGUC [G22A G35U U43C C45U]	0
GGCAGAGCUCAACACAGCGUGACAAAGUGGCUGUGGCGAGAUUGCC [G22A U38G C42U]	0.02
GGCAGAGCUCAACACAGCGUGAGAAAGUCGCUGUGUCUAGACUGCC [G22A C23G G29C G36U]	0.02
GGCAGAGCUCAACACAGCGUUGCAAAUUGGCUGUGGCUUGACUGCC [G21U G27U A39U]	0.78
GGCAGAGCUCAACACAGCGUGAUAAGGUGGCUGUGGCUAGACUGCC [G22A C23U A26G]	0.21
GGCAGAGCUCAACACAGCGUGCCAAAGUGGCUGUUGCUAGACUGCA [G22C G35U C46A]	0.04
GGCAGAGCUCAACACAGCGUGCCAAAAUGACUGUGGCUAGACUGCC [G22C G27A G30A]	0.52
GGCAGAGCUCAACACAGCGUGUCGAAGUGGCUGUGGCUAGACUGCG [G22U A24G C46G]	0.49
GGCAGAGCUCAACACAGCGUGACAAAGUGGAUGUGGCUAGACCGCC [G22A C31A U43C]	0.07
GGCAGAGCUCAACACAGCGUGACAAAGUGGUUGUGGCUAGACUGCA [G22A C31U C46A]	0.31
GGCAGAGCUCAACACAGCGUUGCAAACUCGCUGUGGCUAGACUGCC [G21U G27C G29C]	1.14
GGCAGAGCUCAACACAGCGUGCCAAAGUGGGGGUGGCUAGACUGCC [G22C C31G U32G]	0.05
GGCAGAGCUCAACACAGCGUGCCAAAGUGUCUGUGGGUAGACUGCC [G22C G30U C37G]	0.02
GGCAGAGCUCAACACAGCGUGCCAACUUGGCUGUGGCUAGACUGCA [G22C A26C G27U C46A]	0.45
GGCAGAGCUCAACACAGCGUGCCAAAGUGGAUUUGGCUAGACUGCC [G22C C31A G33U]	0.19

Variant	self-cleavage
GGCAGAGCUCAACACAGCGUGACAAACUGGAUGUGGCUAGACUGCU [G22A G27C C31A C46U]	0.04
GGCAGAGCUCAACACAGCGUGAGACAGUGGCUGUGGCUAGACUGCC [G22A C23G A25C]	0.15
GGCAGAGCUCAACACAGCGUUGCAAAAUGGCCGUGGCUAGACUGCC [G21U G27A U32C]	0.11
GGCAGAGCUCAACACAGCGUGACAAAGAGGCUGAGGCUAGACUGCA [G22A U28A U34A C46A]	0.07
GGCAGAGCUCAACACAGCGUGAAAAAGAGGCUGUCGCUAGACUGCC [G22A C23A U28A G35C]	0.18
GGCAGAGCUCAACACAGCGUUGCAAAGUGGCUAUGGCUAGACUGCU [G21U G33A C46U]	0.11
GGCAGAGCUCAACACAGCGUUGCAAAGUGGCUAUGGCUAGACUGCG [G21U G33A C46G]	0.04
GGCAGAGCUCAACACAGCGUUGCAAAGUGGCUGUGGCUAUCCUUCC [G21U G40U A41C G44U]	0.11
GGCAGAGCUCAACACAGCGUGCCAAAGUCGCUUUGGCUAGGCUGCC [G22C G29C G33U A41G]	0.12
GGCAGAGCUCAACACAGCGUGCCAAUGUGGCUGUGGAUAGACUGCC [G22C A26U C37A]	0.02
GGCAGAGCUCAACACAGCGUUGCAAAGUUGCUUUUGCUAGACUGCC [G21U G29U G33U G35U]	0.05
GGCAGAGCUCAACACAGCGUGCCAAAGUGGCUGCUGCUAGACUGUC [G22C U34C G35U C45U]	0.02
GGCAGAGCUCAACACAGCGUUGCAAAGUGGCUGAGGCUACACUGCC [G21U U34A G40C]	0.05
GGCAGAGCUCAACACAGCGUGACAAAGUGGGAGUGGCUAGACUGCC [G22A C31G U32A]	0.04
GGCAGAGCUCAACACAGCGUGCCAAAGUGGCAGUGGCUAGACUGCU [G22C U32A C46U]	0
GGCAGAGCUCAACACAGCGUGCCAAUGUGGCUGUGGUUGGACUGCC [G22C A26U C37U A39G]	0.51
GGCAGAGCUCAACACAGCGUGACAAAGUGGCUUUGGCUAGACUCCC [G22A G33U G44C]	0.2
GGCAGAGCUCAACACAGCGUGUCGAAGUGGCUGUCGCUAGACUGCC [G22U A24G G35C]	0.02
